Measurements taken from patent US20250179210A1, “ANTI-CEACAM5 ANTIBODIES AND CONJUGATES AND USES THEREOF” (Merck Patent GmbH, priority 2022, published 2025).

Experiments:
[1] = test system: SK-CO-1; assay: Viability assay (Cell Titer-Glo); format: cell-based, human; details: FIG. 26A
[2] = test system: CEACAM5-negative MDA-MB-231 cells in co-culture with CEACAM5-positive SK-CO-1 cells; assay: Bystander assay; format: cell-based, human; details: co-culture, 1 nM
Method: Cytotoxicity effects of ADCs on antigen-negative cancer cell lines in co-culture with antigen-positive cancer cell lines were measured by bystander assays. One thousand CEACAM5-negative MDA-MB-231 cells were seeded in co-culture experiments with 750 or 3000 CEACAM5-positive SK-CO-1 cells per well. As a control, 1000 MDA-MB-231 cells only were seeded in parallel. Cells were seeded in a total volume of 90 μL in 96-well plates the day before treatment. Test compounds were formulated at 10-fold the final concentration of 1E-9 M in cell culture medium and 10 μL was added to the cells in duplicates. Plates were cultured at 37° C. in a CO2 incubator for six days.
Prior to immunofluorescence staining, medium was removed and cells were treated with 100% methanol (−20° C.) for 30 minutes. After methanol removal and one PBS wash step, cells were treated with 2.5% paraformaldehyde (PFA) with 0.2% Triton X-100 in PBS for 15 minutes at room temperature. After solution removal and one PBS wash step, cells were treated with 1% BSA/0.1% Tween/0.1% sodium azide in PBS for at least one hour at room temperature. Antigen-positive and antigen-negative cells were discriminated by immunofluorescence staining with 10 μg/mL human anti-CEACAM5 (mAb1) primary antibody and 1:2000 dilution of donkey anti-human IgG fluorescently (phycoerythrin) labeled secondary antibody (Jackson ImmunoResearch #709-116-149). Cells were identified by nuclei staining using 1 μg/mL Hoechst 33342 (Life technologies, cat #H3570) dye. Staining was carried out in 1% BSA/0.1% sodium azide PBS solutions for 30 minutes at room temperature. Secondary antibody staining was combined with Hoechst dye staining. Between and after staining steps, cells were washed thrice with PBS.
Plates were imaged with the confocal quantitative image cytometer CQ1 (Yokogawa® Electric Corporation, Tokyo, Japan). Analysis was adapted from the CQ1 software (Yokogawa) template “Nucleus and pseudo-Cell body” and FCS export files were analyzed using FlowJo (BD). Based on staining or absence of staining with fluorescently labeled antibody around the nucleus, antigen-positive and antigen-negative cells were distinguished and quantified. Bar graphs show the number of identified antigen-positive and antigen-negative cells per treatment condition.

B1: ADC mAb1 DM4 (conjugate)
heavy: EVQLQESGPGLVKPSQTLSLTCTVSDGSVSRGGYYLTWIRQHPGKGLEWIGYIYYSGSTYFNPSLRSRVTMSVDTSKNQFSLKLSSVTAADTAVYYCARGIAVAPFDYWGQGTLVTVSSASTKGPSVFPLAPSSKSTSGGTAALGCLVKDYFPEPVTVSWNSGALTSGVHTFPAVLQSSGLYSLSSVVTVPSSSLGTQTYICNVNHKPSNTKVDKRVEPKSCDKTHTCPPCPAPPVAGPSVFLFPPKPKDTLMISRTPEVTCVVVDVSHEDPEVKFNWYVDGVEVHNAKTKPREEQYNSTYRVVSVLTVLHQDWLNGKEYKCKVSNKALPSSIEKTISKAKGQPREPQVYTLPPSREEMTKNQVSLTCLVKGFYPSDIAVEWESNGQPENNYKTTPPVLDSDGSFFLYSKLTVDKSRWQQGNVFSCSVMHEALHNHYTQKSLSLSPG
light: EIVLTQSPATLSVSPGERATLSCRTSQSVRSNLAWYQQKPGQAPRLLIYAASTRATGIPARFSGSGSGTEFTLTISSLQSEDFAVYYCQQYTNWPFTFGPGTKVDIKRTVAAPSVFIFPPSDEQLKSGTASVVCLLNNFYPREAKVQWKVDNALQSGNSQESVTEQDSKDSTYSLSSTLTLSKADYEKHKVYACEVTHQGLSSPVTKSFNRGEC
[1]
  potency against SK-CO-1 (comparison of the DM4 ADCs): comparable potencies
[2]
  bystander effect compared to ADC SAR DM4: more pronounced bystander effect than ADC SAR DM4
